Source: the supplement of paper PMC12582362
Structures can show the parent of a compound that is named as a salt. The campaign covered roughly 1,500 compounds. About 30 (2%) showed activity.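 Rule for the calls: active = robust z-score below -2; a few such results were not called.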 The list shows a part of the results.

test system: optoTopBP1 Flp-In 293 T-REx (HEK293) cells; assay: light-induced TopBP1 condensate (nuclear foci) count, plate-normalised robust z-score vs non-control wells; higher = more TopBP1 condensates (negative = condensation inhibitor), active = hit call of the paper; conditions: 10 µM; incubation time 2 h

| SMILES | light-induced TopBP1 condensate (z-score) |
| --- | --- |
| CCN(CCCc1ccccc1)CCCc1ccccc1 [Alverine citrate salt] | inactive: 0.4 |
| O=P(O)(O)C(O)(Cc1cccnc1)P(=O)(O)O [Risedronic acid monohydrate] | inactive: -0.826 |
| CCN(CC)C(=O)N1CCN(C)CC1 [Diethylcarbamazine citrate] | inactive: -0.531 |
| C=CC[N@@+]12CC[C@@]34c5ccccc5N5/C=C6/[C@H]7C[C@H]8[C@@]9(CC[N@@+]8(CC=C)C/C7=C/CO)c7ccccc7N(/C=C(/[C@@H](C[C@@H]31)/C(=C\CO)C2)[C@H]54)[C@@H]69 [Alcuronium chloride] | inactive: 0.0907 |
| CCCC(C(=O)OCCN(CC)CC)(c1ccccc1)c1ccccc1 [Proadifen hydrochloride] | inactive: -0.0477 |
| Clc1ccc(COC(Cn2ccnc2)c2ccc(Cl)cc2Cl)cc1 (stereo unspecified) [Econazole nitrate] | inactive: -1.01 |
| CO/N=C1\CN(c2nc3c(cc2F)c(=O)c(C(=O)O)cn3C2CC2)CC1CN (stereo unspecified) [Gemifloxacin mesylate] | inactive: -1.54 |
| Clc1ccccc1C(c1ccccc1)(c1ccccc1)n1ccnc1 [Clotrimazole] | inactive: 0.22 |
| O=C(O)c1cc(=O)c2c(OCC(O)COc3cccc4oc(C(=O)O)cc(=O)c34)cccc2o1 [Cromolyn disodium salt] | inactive: 0.475 |
| CC(=O)OC(C)C[N+](C)(C)C (stereo unspecified) [Methacholine chloride] | inactive: 0.247 |
| CCCCOc1ccc(CC(=O)NO)cc1 [Bufexamac] | inactive: -0.576 |
| Oc1c(Cl)cc(Cl)cc1Sc1cc(Cl)cc(Cl)c1O [Bithionol] | inactive: -0.488 |
| NC[C@H]1CC[C@H](C(=O)O)CC1 [Tranexamic acid] | inactive: 0.618 |
| C=CCc1ccccc1OCC(O)CNC(C)C (stereo unspecified) [Alprenolol hydrochloride] | inactive: -0.491 |
| Cc1ccc(O)c([C@H](CCN(C(C)C)C(C)C)c2ccccc2)c1 [Tolterodine tartrate] | inactive: -1.32 |
| Cc1c(O)cccc1C(=O)N[C@@H](CSc1ccccc1)[C@H](O)CN1C[C@H]2CCCC[C@H]2C[C@H]1C(=O)NC(C)(C)C [Nelfinavir mesylate] | inactive: -0.917 |
| CCSc1ccc2c(c1)N(CCCN1CCN(C)CC1)c1ccccc1S2 [Thiethylperazine dimalate] | inactive: -1.19 |
| CN(C)CCC(c1ccccc1)c1ccccn1 (stereo unspecified) [Pheniramine maleate] | inactive: 0.115 |
| CC(CCc1ccc(O)cc1)NCCc1ccc(O)c(O)c1 (stereo unspecified) [Dobutamine hydrochloride] | inactive: 1.03 |
| CNCC[C@@H](Oc1cccc2ccccc12)c1cccs1 [(R)-Duloxetine hydrochloride] | inactive: -1.75 |
| Nc1ccc(S(N)(=O)=O)cc1 [Sulfanilamide] | inactive: 0.361 |

| SMILES | light-induced TopBP1 condensate (z-score) |
| --- | --- |
| O=c1[nH]c(=O)n([C@H]2C[C@H](O)[C@@H](CO)O2)cc1/C=C/Br [Brivudine] | inactive: 0.27 |
| CCC(C)(C)c1ccc(CC(C)CN2C[C@@H](C)O[C@@H](C)C2)cc1 (stereo partly specified) [Amorolfine hydrochloride] | inactive: -0.629 |
| CCOC(=O)c1ccc(C#Cc2ccc3c(c2)C(C)(C)CCS3)nc1 [Tazarotene] | inactive: -0.802 |
| CC[C@]12CCCN3CCc4c(n(c5ccccc45)[C@@](O)(C(=O)OC)C1)[C@@H]32 [Vincamine] | inactive: -0.735 |
| CNC1(C)C2CCC(C2)C1(C)C (stereo unspecified) [Mecamylamine hydrochloride] | inactive: -0.0167 |
| CCC(C)(CN(C)C)OC(=O)c1ccccc1 (stereo unspecified) [Amyleine hydrochloride] | inactive: -0.0594 |
| CC(=C(CCO)SSCC1CCCO1)N(C=O)Cc1cnc(C)nc1N (stereo in doubt) [Fursultiamine Hydrochloride] | inactive: 1.42 |
| C=C(NC(=O)C(=C)NC(=O)c1csc(C2=N[C@@H]3c4csc(n4)[C@H]4NC(=O)c5csc(n5)[C@H]([C@](C)(O)[C@@H](C)O)NC(=O)[C@H]5CSC(=N5)/C(=C/C)NC(=O)[C@H]([C@@H](C)O)NC(=O)c5csc(n5)[C@]3(CC2)NC(=O)[C@H](C)NC(=O)C(=C)NC(=O)[C@H](C)NC(=O)[C@H]([C@@H](C)CC)N[C@@H]2C=Cc3c([C@H](C)O)cc(nc3[C@H]2O)C(=O)O[C@@H]4C)n1)C(N)=O [Thiostrepton] | active: -3.34 |
| Cn1c(=O)c2c(ncn2CC(O)CO)n(C)c1=O (stereo unspecified) [Diprophylline] | inactive: -0.324 |
| NC(=O)c1cccnc1 [Nicotinamide] | inactive: -0.954 |
| CC(C)(Oc1ccc(C2CC2(Cl)Cl)cc1)C(=O)O (stereo unspecified) [Ciprofibrate] | inactive: 0.844 |
| CC1=C(C(=O)O)N2C(=O)[C@@H](NC(=O)[C@H](N)c3ccc(O)cc3)[C@H]2SC1 [Cefadroxil] | inactive: 0.727 |
| NS(=O)(=O)c1cc2c(cc1Cl)NC(Cc1ccccc1)NS2(=O)=O (stereo unspecified) [Benzylhydrochlorothiazide] | inactive: -0.404 |
| C=CCN1CCCC1CNC(=O)c1cc2nn[nH]c2cc1OC (stereo unspecified) [Alizapride hydrochloride] | inactive: 0.667 |
| CCOC(=O)C1=C(C)NC(C)=C(C(=O)OC)C1c1cccc([N+](=O)[O-])c1 (stereo unspecified) [Nitrendipine] | inactive: -0.152 |
| CCn1cc(C(=O)O)c(=O)c2cc(F)c(N3CCNCC3)cc21 [Norfloxacin] | inactive: -0.0857 |
| O=C(c1ccc(OCCN2CCCCC2)cc1)c1c(-c2ccc(O)cc2)sc2cc(O)ccc12 [Raloxifene hydrochloride] | inactive: -0.372 |
| CC(CN1c2ccccc2Sc2ccccc21)N(C)C (stereo unspecified) [Promethazine hydrochloride] | inactive: -0.734 |
| NS(=O)(=O)c1cc2c(cc1C(F)(F)F)NC(Cc1ccccc1)NS2(=O)=O (stereo unspecified) [Bendroflumethiazide] | inactive: 0.363 |
| CCc1oc2ccccc2c1C(=O)c1ccc(O)cc1 [Benzarone] | inactive: 1.57 |
